± gives the uncertainty stated by the source. This is one part of the list. Phosphotyrosine is written y.
Molecular target: GRB2 (endogenous complexes from cell lysate), P62993
Experiment: GRB2 complex binding differential signal (pY peptide minus Ala control peptide) (fluorescence intensity units); higher = stronger GRB2 complex binding
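Also: phosphopeptide probes on the chip at 1–4 µM, lysate proteins bound in 20 mM Tris pH 7.0 buffer with 140 mM NaCl, 1% Triton X-100 and 5% glycerol.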

| Binder | GRB2 complex binding differential signal (MCF7) | GRB2 complex binding differential signal (MCF10A) | GRB2 complex binding differential signal (MDA-MB-231) | GRB2 complex binding differential signal (T47D) |
| --- | --- | --- | --- | --- |
| yRSLEE [VAV2_142/A1] | 912 ± 320 | 778 ± 300 | 962 ± 340 | 315 ± 1100 |
| yENPDE [BLNK_72/A1] | 6430 ± 1400 | 3880 ± 690 | 9850 ± 790 | 13500 ± 2900 |
| yVSSES [ABL1_185/A1] | 1240 ± 180 | 1050 ± 450 | 1130 ± 290 | 1530 ± 1000 |
| yDCVPC [VAV2_159/A1] | 40.9 ± 630 | 92.5 ± 130 | 335 ± 210 | 172 ± 870 |
| yEDIIK [VAV2_172/A1] | 684 ± 290 | 897 ± 700 | 1150 ± 520 | 907 ± 1100 |
| yTFDKT [VAV2_529/A1] | 777 ± 450 | 25.1 ± 270 | 849 ± 440 | 725 ± 3700 |
| yKGLPD [VAV3_141/A1] | 1150 ± 370 | 4290 ± 1400 | 1200 ± 300 | 1200 ± 990 |
| yEMKEI [VAV3_439/A1] | 782 ± 480 | 862 ± 170 | 1280 ± 450 | 1290 ± 1100 |
| yKNPDY [VEGFR1_1048/A1] | 4150 ± 670 | 2420 ± 900 | 2220 ± 640 | 8880 ± 2900 |
| yVRKGD [VEGFR1_1053/A1] | 1180 ± 2600 | 1290 ± 370 | 478 ± 240 | 557 ± 880 |
| yIPINA [VEGFR1_1169/A1] | 800 ± 1100 | 287 ± 1200 | 763 ± 460 | 1900 ± 1100 |
| yVNAFK [VEGFR1_1213/A1] | 55500 ± 5500 | 40700 ± 3600 | 11700 ± 1800 | 31700 ± 7000 |
| yQGDSS [VEGFR1_1242/A1] | 656 ± 430 | 575 ± 300 | 1400 ± 320 | 2530 ± 1600 |
| yVMPAE [BLNK_84/A1] | 5490 ± 730 | 3390 ± 1200 | 1800 ± 400 | 1890 ± 1500 |
| yNSVVL [VEGFR1_1327/A1] | -1790 ± 2600 | 1120 ± 290 | 725 ± 340 | 1510 ± 1200 |
| ySTPPI [VEGFR1_1333/A1] | 16800 ± 3100 | 11400 ± 2200 | 9140 ± 1100 | 7420 ± 1500 |
| yLSIIM [VEGFR1_794/A1] | 389 ± 580 | 539 ± 290 | 1150 ± 490 | 358 ± 1200 |

| Binder | GRB2 complex binding differential signal (MCF7) | GRB2 complex binding differential signal (MCF10A) | GRB2 complex binding differential signal (MDA-MB-231) | GRB2 complex binding differential signal (T47D) |
| --- | --- | --- | --- | --- |
| yIVLPI [VEGFR2_1175/A1] | 853 ± 950 | 2210 ± 570 | 1840 ± 610 | 1290 ± 1100 |
| yDNTAG [VEGFR2_1214/A1] | 1230 ± 320 | 1490 ± 370 | 1090 ± 410 | 2110 ± 1200 |
| yLSIVM [VEGFR2_801/A1] | 387 ± 220 | 218 ± 270 | 782 ± 300 | 272 ± 880 |
| yVGAIP [VEGFR2_951/A1] | 1920 ± 780 | 1260 ± 410 | 856 ± 390 | 287 ± 850 |
| yKDFLT [VEGFR2_996/A1] | 280 ± 240 | 246 ± 220 | 1060 ± 610 | 731 ± 790 |
| yIDKVR [VIME_Y117/A1] | 2060 ± 720 | 862 ± 880 | 495 ± 320 | 469 ± 870 |
| yESVAA [VIME_Y276/A1] | 1090 ± 700 | 3070 ± 320 | 2570 ± 680 | 2620 ± 1200 |
| yEPPPV [BLNK_96/A1] | 2620 ± 2300 | 4410 ± 790 | 2750 ± 700 | 2460 ± 1300 |
| yVTTST [VIME_Y30/A1] | 3730 ± 1000 | 3940 ± 1100 | 3650 ± 440 | 3770 ± 2600 |
| ySLGSA [VIME_Y38/A1] | 1110 ± 320 | 451 ± 240 | 367 ± 570 | 565 ± 1300 |
| yASSPG [VIME_Y53/A1] | 1650 ± 390 | 1960 ± 450 | 1100 ± 310 | 1050 ± 1200 |
| yATRSS [VIME_Y61/A1] | 4520 ± 410 | 2760 ± 580 | 1450 ± 480 | 3650 ± 1300 |
| yYITTR [YES_222/A1] | 179 ± 210 | 348 ± 240 | 377 ± 340 | 199 ± 700 |
| yGAEPT [YES_32/A1] | 799 ± 260 | 1210 ± 410 | 1890 ± 530 | 2280 ± 1200 |
| yIVTEF [YES_345/A1] | 68.6 ± 560 | 227 ± 230 | 633 ± 360 | -78.9 ± 2100 |
| yTPEPA [ZAP70_292/A1] | 180 ± 380 | 637 ± 1000 | 752 ± 360 | 1170 ± 1500 |

Reference: the supplement of paper PMC3694890
